Where “and” joins values, the source holds several entries; their conditions need not be identical. Equal values may be shown once. Calls of active or inactive are those of the source. Unless noted, the call rests on the fitted dose curve; in most records, active means well fitted curve in the direction sought with a large enough effect in the repeat runs; inconclusive means weak or mixed curves; inactive means no such curve, though single readings can be large; an effect the other way counts as inactive or inconclusive.
Assays:
[1] = qHTS assay to identify small molecule antagonists of the androgen receptor (AR) signaling pathway using the MDA cell line - cell viability counter screen (AID 743041; further: nearly all actives have a fitted effect of over 45% in size); conditions: MDA-kb2 viability, CellTiter-Fluor, 16 h, cells co-treated with R1881 androgen agonist; viability change, negative = cytotoxic: at 70.3 µM (top of the series) unless noted
How it was run: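 MDA-kb2 AR-luc cells (MMTV-luciferase, AR/GR responsive) treated with compounds plus R1881 agonist for 16 h at 37C. CellTiter-Fluor added at 15.5 h; fluorescence read after 30 min in the same wells.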

[2] = qHTS assay to identify small molecule antagonists of the thyroid receptor (TR) signaling pathway - cell viability counter screen (AID 743064); conditions: GH3.TRE-Luc viability, CellTiter-Fluor, 24 h; activity change, negative = cytotoxic: at 70.3 µM (top of the series); further: nearly all actives have a fitted effect of over 50% in size; on activity change, negative = cytotoxic: on the % scale 0 is the no-effect control and ±100 the full control effect
How it was run: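 Rat GH3 pituitary tumor cells stably expressing two TR response elements driving luciferase were plated, rested 4 h, then dosed with library compounds and T3 (1 nM final). After 23.5 h at 37 °C, CellTiter-Fluor was added for 30 min and fluorescence recorded.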

[3] = tested on: thyroid hormone receptor (rat, GH3 cells); assay: qHTS assay to identify small molecule agonists of the thyroid receptor (TR) signaling pathway (AID 743066; calls by dose curve; on activation: on the % scale 0 is the no-effect control and ±100 the full control effect); conditions: GH3.TRE-Luc cells, TR agonist luciferase, 24 h; activation: at 83.9 µM (top of the series) unless noted
[4] = molecular target: Estrogen receptor (Homo sapiens) (UniProt P03372); assay: qHTS assay to identify small molecule antagonists of the estrogen receptor alpha (ER-alpha) signaling pathway (AID 743069; active means well fitted curve in the direction sought with a large enough effect in the signal ratio in the repeat runs, not every such curve was filed as active; inconclusive means weak or mixed curves, or effect the other way; inactive means no such curve, though single readings can be large or run the other way; the % refers to the signal ratio; on activity, negative = inhibition: on the % scale 0 is the no-effect control and ±100 the full control effect); conditions: HEK293 ER-alpha-UAS-bla, beta-lactamase ratio, antagonist mode; activity, negative = inhibition: at 69.4 µM (top of the series)
UniProt P03372, sequence (P03372 whole entry, looked up): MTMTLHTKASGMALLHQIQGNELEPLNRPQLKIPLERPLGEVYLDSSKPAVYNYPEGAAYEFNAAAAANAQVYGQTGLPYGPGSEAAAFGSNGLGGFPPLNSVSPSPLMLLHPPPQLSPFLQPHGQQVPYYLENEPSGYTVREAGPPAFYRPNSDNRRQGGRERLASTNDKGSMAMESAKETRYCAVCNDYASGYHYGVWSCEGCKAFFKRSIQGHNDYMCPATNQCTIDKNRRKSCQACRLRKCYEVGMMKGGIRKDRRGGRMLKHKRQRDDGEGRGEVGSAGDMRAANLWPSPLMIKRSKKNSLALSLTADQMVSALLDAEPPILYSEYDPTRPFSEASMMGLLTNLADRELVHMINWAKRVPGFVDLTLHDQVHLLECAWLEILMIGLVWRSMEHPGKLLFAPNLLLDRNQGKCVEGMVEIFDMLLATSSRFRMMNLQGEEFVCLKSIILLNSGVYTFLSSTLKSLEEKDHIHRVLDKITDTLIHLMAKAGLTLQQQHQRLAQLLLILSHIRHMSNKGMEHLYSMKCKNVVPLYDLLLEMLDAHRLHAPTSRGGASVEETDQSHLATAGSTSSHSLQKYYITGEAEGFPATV
How it was run: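 HEK293 ER-alpha-UAS-bla GripTite cells, held overnight in 2% charcoal-stripped FBS, 5,000 cells/well, preincubated 4 h, then compound plus 17beta-estradiol for 18 h at 37C. Beta-lactamase read by LiveBLAzer B/G FRET substrate, 2 h at room temperature.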

[5] = qHTS assay to identify small molecule antagonists of the estrogen receptor alpha (ER-alpha) signaling pathway - cell viability counter screen (AID 743074; calls by dose curve;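 further: HEK293 cells carrying ER-alpha-UAS-bla reporter stimulated with 17beta-estradiol; nearly all actives have a fitted effect of over 45% in size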)
[6] = molecular target: Estrogen receptor (Homo sapiens) (UniProt P03372); assay: qHTS assay to identify small molecule agonists of the estrogen receptor alpha (ER-alpha) signaling pathway (AID 743075; calls by dose curve); conditions: HEK293 ER-alpha-UAS-bla, beta-lactamase FRET ratio, 18 h; activation: at 70.1 µM (top of the series)
[7] = molecular target: Estrogen receptor (Homo sapiens) (UniProt P03372); assay: qHTS assay to identify small molecule agonists of the estrogen receptor alpha (ER-alpha) signaling pathway using the BG1 cell line (AID 743079); conditions: BG1Luc4E2 cells, ERE-luciferase agonist, 22 h; activation: at 70.3 µM (top of the series) unless noted; further: nearly all actives have a fitted effect of over 20% in size
[8] = qHTS assay to identify small molecule antagonists of the estrogen receptor alpha (ER-alpha) signaling pathway using the BG1 cell line (AID 743080; calls by dose curve;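 further: BG1 cells stimulated with 17beta-estradiol alongside compound; nearly all actives have a fitted effect of over 25% in size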); conditions: BG1Luc4E2 ERE-luciferase antagonist mode, luminescence; activity change, negative = inhibition: at 70.3 µM (top of the series) unless noted
How it was run: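 After 5 days in phenol-red-free 10% charcoal-stripped FBS medium, BG1-Luc-4E2 cells were seeded, left 24 h at 37 C, co-treated with compounds and 17beta-estradiol for 21.5 h, then assayed for viability and luciferase.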

[9] = qHTS assay to identify small molecule antagonists of the estrogen receptor alpha (ER-alpha) signaling pathway using the BG1 cell line - cell viability counter screen (AID 743081);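 further: compound given together with 17beta-estradiol as the ER stimulus; nearly all actives have a fitted effect of over 45% in size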
Aromatase (Homo sapiens) = Aromatase (Homo sapiens) (UniProt P11511); assay: qHTS assay to identify aromatase inhibitors (AID 743083); further: nearly all actives have a fitted effect of over 55% in size
UniProt P11511, sequence (P11511 whole entry, looked up): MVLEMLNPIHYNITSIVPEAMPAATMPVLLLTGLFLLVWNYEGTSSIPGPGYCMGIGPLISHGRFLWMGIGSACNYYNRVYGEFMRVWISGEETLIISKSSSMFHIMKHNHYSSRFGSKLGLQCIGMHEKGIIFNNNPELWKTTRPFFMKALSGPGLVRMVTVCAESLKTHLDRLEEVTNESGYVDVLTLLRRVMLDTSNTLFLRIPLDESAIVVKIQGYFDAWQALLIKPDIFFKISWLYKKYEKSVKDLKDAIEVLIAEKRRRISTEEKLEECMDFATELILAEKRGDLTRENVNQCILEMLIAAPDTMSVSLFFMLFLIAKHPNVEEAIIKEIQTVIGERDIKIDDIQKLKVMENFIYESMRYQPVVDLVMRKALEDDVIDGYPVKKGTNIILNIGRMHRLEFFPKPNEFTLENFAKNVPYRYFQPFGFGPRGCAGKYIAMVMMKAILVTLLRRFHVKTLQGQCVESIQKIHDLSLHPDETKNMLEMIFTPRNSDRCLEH

[10] = molecular target: Peroxisome proliferator-activated receptor gamma (Homo sapiens) (UniProt P37231); assay: qHTS assay to identify small molecule agonists of the peroxisome proliferator-activated receptor gamma (PPARg) signaling pathway (AID 743094; active means well fitted activation curve with a large enough effect in the signal ratio in the repeat runs, not every such curve was filed as active; inconclusive means weak or mixed curves, or effect the other way; inactive means no such curve, though single readings can be large or run the other way; the % refers to the signal ratio; on activation: on the % scale 0 is the no-effect control and ±100 the full control effect); conditions: HEK293H PPARg-UAS-bla, beta-lactamase FRET ratio, 17 h; activation: at 57 µM (top of the series) unless noted
UniProt P37231, sequence (P37231 whole entry, looked up): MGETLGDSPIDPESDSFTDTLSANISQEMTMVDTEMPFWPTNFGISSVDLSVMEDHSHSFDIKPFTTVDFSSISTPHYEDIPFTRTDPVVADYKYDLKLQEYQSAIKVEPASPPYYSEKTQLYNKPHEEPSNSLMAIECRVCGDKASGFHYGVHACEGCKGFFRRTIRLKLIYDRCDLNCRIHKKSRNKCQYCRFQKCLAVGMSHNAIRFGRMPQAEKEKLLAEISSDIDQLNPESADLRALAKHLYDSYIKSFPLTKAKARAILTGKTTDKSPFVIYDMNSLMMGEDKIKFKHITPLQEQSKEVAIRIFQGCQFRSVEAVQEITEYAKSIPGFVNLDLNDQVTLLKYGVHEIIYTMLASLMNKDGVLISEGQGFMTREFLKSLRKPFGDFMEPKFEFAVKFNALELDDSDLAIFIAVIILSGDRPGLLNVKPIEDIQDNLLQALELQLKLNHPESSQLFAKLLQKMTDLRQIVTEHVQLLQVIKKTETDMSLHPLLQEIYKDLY
How it was run: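 Beta-lactamase FRET fluorescence was the read-out after a 1 h room-temperature substrate step, following 17 h compound treatment at 37C of HEK293H cells expressing a UAS-driven bla reporter responsive to PPARg.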

[11] = molecular target: Peroxisome proliferator-activated receptor gamma (Homo sapiens) (UniProt P37231); assay: qHTS assay to identify small molecule antagonists of the peroxisome proliferator-activated receptor gamma (PPARg) signaling pathway (AID 743191; calls by dose curve; further: nearly all actives have a fitted effect of over 30% in size); conditions: HEK293H PPARg-UAS-bla, beta-lactamase ratio, antagonist, 17 h; ratio activity, negative = inhibition: at 62.6 µM (top of the series) unless noted
How it was run: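 GeneBLAzer PPARg UAS-bla HEK293H cells, 5 h post-plating, exposed to compounds 17 h at 37C. LiveBLAzer B/G FRET substrate added for 1 h at room temperature; beta-lactamase reporter read by fluorescence intensity.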

[12] = qHTS assay to identify small molecule antagonists of the thyroid receptor (TR) signaling pathway (AID 743065); further: nearly all actives have a fitted effect of over 55% in size
How it was run: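 GH3.TRE-Luc rat pituitary cells (two TREs driving luciferase) were dosed with compound, then stimulated with 1 nM T3 (final) for 23.5 h at 37 C. ONE-Glo luminescence was the read-out, with CellTiter-Fluor fluorescence as the cytotoxicity counter-screen.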

[13] = qHTS assay to identify aromatase inhibitors - cell viability counter screen (AID 743084);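 further: cells stimulated with testosterone during compound exposure; nearly all actives have a fitted effect of over 55% in size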
[14] = qHTS assay to identify small molecule that activate the aryl hydrocarbon receptor (AhR) signaling pathway - cell viability counter screen (AID 743086); further: nearly all actives have a fitted effect of over 45% in size
How it was run: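 HepG2-AhR-luc (HG2L7.5c1) cells, 4000/well, treated 24 h at 37 C with compound; viability measured as CellTiter-Fluor fluorescence after 30 min in the same wells as the luciferase read.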
Potency means the concentration at half of the fitted maximal effect; tags describe the fitted curve by direction and shape or compound fluorescence and quenching.

C=C(C)C(=O)[O][Sn]([CH2]CCC)([CH2]CCC)[CH2]CCC
Potency [1]: active: 1.93 µM | Potency [2]: active: 433 nM | Potency [3]: active: 0.0306 µM | Potency [4]: inconclusive: 30.9 µM [cytotoxic, partial curve] | Potency [5]: active: 1.74 µM | Potency [6]: inconclusive: 3.09 µM [falling, full curve] | Potency [7]: inconclusive: 0.433 µM [inhibitor, full curve] | Potency [8]: active: 0.344 µM | Potency [9]: active: 1.37 µM | Potency (Aromatase (Homo sapiens)): active: 3.86 µM | Potency [10]: inconclusive: 13.8 µM [falling, partial curve] | Potency [11]: inconclusive: 0.11 µM [rising, full curve]

CC(O)C(=O)[O][Hg][c]1ccccc1 (centres undefined)
Potency [1]: active: 4.86 µM | Potency [2]: active: 686 nM | Potency [12]: active: 0.344 µM | activation [3]: inconclusive: -9.16% [phenotype inactive] | Potency [4]: inconclusive: 4.9 µM [fluorescent, full curve] | Potency [5]: active: 5.49 µM | Potency [7]: inconclusive: 3.44 µM [inhibitor, full curve] | Potency [8]: inconclusive: 3.06 µM [falling, full curve] | Potency [9]: active: 3.06 µM | Potency [13]: active: 1.09 µM | Potency [14]: active: 4.86 µM

CCOP(=O)(OCC)Oc1ccc([N+](=O)[O-])cc1
Potency [1]: inconclusive: 68.6 µM [cytotoxic, partial curve, poor fit] | Potency [2]: inactive | Potency [5]: inconclusive: 3.13 µM [cytotoxic, full curve] | Potency [9]: inconclusive: 54.5 µM [cytotoxic, partial curve, poor fit] | Potency (Aromatase (Homo sapiens)): inconclusive: 34.8 µM [inhibitor, partial curve] and inconclusive: 21.7 µM [inhibitor, partial curve] | Potency [11]: active: 22.1 µM and inconclusive: 6.92 µM [inhibitor, full curve]

CC(C)C1CCC(Cc2ccc(Cl)cc2)C1(O)Cn1cncn1 (centres undefined)
Potency [1]: inconclusive: 67.9 µM [cytotoxic, single point] | Potency [2]: active: 60500 nM | activation [3]: inconclusive: -9.6% [phenotype inactive] | Potency [4]: inconclusive: 48.5 µM | Potency [5]: inconclusive: 21.7 µM [cytotoxic, partial curve] | Potency [7]: inconclusive: 60.5 µM [inhibitor, partial curve] | Potency [8]: active: 67.9 µM | Potency [9]: inconclusive: 60.5 µM [cytotoxic, single point] | Potency [14]: inconclusive: 19.1 µM [falling, partial curve, poor fit] | activation [10]: inconclusive: -11.3% | Potency [11]: inconclusive: 54.4 µM

CCCCC(CC)COC(=O)c1ccccc1C(=O)OCC(CC)CCCC (centres undefined)
Potency [1]: inconclusive: 30.6 µM [cytotoxic, partial curve, poor fit] | Potency [2]: inconclusive: 388 nM | Potency [12]: inconclusive: 24.3 µM [inhibitor, partial curve, poor fit] | Potency [4]: inactive | Potency [5]: inconclusive: 61.6 µM [rising, single point] | Potency [7]: inactive | Potency [11]: inconclusive: 34.7 µM [activator]

CCOP(=O)(OCC)O/C(=C/Cl)c1ccc(Cl)cc1Cl
Potency [1]: inconclusive: 68.6 µM [cytotoxic, single point] | Potency [2]: inconclusive: 26.6 µM [cytotoxic] and inconclusive: 68.6 µM [cytotoxic, single point] | Potency [3]: inactive | Potency [4]: inconclusive: 26.8 µM and active: 21.9 µM [inconclusive] | Potency [7]: inconclusive: 61.1 µM [inhibitor, single point] | Potency [14]: inconclusive: 68.6 µM [falling, single point] | ratio activity, negative = inhibition [11]: inconclusive: -21.7%

From PubChem BioAssay (Tox21)
